# Test results: the supplement of paper PMC8728848
# The other results are listed elsewhere or left out.
# B1: MSMEG3662-2a (Mycobacterium smegmatis), A0QYH7_MYCS2 (protein)
# chain: MGDTLTAGQKLERGGSLQSGNGAYTLTLQDDGNLVLYARDKAVWSTGTNGQDVVRAEVQTDGNFVLYTAEKPVWHTDTKGKKEVKLVLQDDRNLVLYAKDGPAWSSKTDTTEPPPPAPEPEKEAEVAPAAAEEAAPAPVAEPAPAEPAPAAPPPAPPAPRTYTVVSGDTLWAIAERFYGDGSKYQQIADASGIANPDLIHPGQVLTIP
# Tests used:
# Test in all cases: glycan array binding signal (z-score within array); higher = stronger binding
# Settings in all cases: glycan notation: IUPAC condensed, linker removed
# [1] = biological target: Gal(b1-4)GlcNAc(b1-3)Gal(b1-4)GlcNAc(b1-3)[Gal(b1-4)GlcNAc(b1-3)Gal(b1-4)GlcNAc(b1-6)]GalNAc
# Method in brief: (§1)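 Glycan array data were curated from 3228 arrays in the Consortium for Functional Glycomics database and kept only where the protein sequence was available. Glycan names were converted to IUPAC-condensed notation, and columns mapping to the same glycan were averaged. The binding signal is a within-array Z-score, averaged across arrays of the same protein sequence at different concentrations or buffers and across linkers. Negative Z-scores can be read as non-binding.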
# [2] = biological target: Gal(b1-4)GlcNAc(b1-3)Gal(b1-4)GlcNAc(b1-6)[Gal(b1-3)]GalNAc
# Method in brief: as §1
# [3] = biological target: Gal(b1-4)GlcNAc(b1-3)Gal(b1-4)[Fuc(a1-3)]GlcNAc(b1-3)Gal(b1-4)[Fuc(a1-3)]GlcNAc
# Method in brief: as §1
# [4] = biological target: Gal(b1-4)GlcNAc(b1-3)GalNAc
# Method in brief: as §1
# [5] = biological target: Gal(b1-4)GlcNAc(b1-3)[Fuc(a1-3)GlcNAc(b1-6)]Gal(b1-4)Glc
# Method in brief: as §1
# [6] = biological target: Gal(b1-4)GlcNAc(b1-3)[Gal(b1-4)GlcNAc(b1-6)]Gal(b1-4)GlcNAc
# Method in brief: as §1
# [7] = biological target: Gal(b1-4)GlcNAc(b1-3)[GlcNAc(b1-6)]Gal(b1-4)GlcNAc
# Method in brief: as §1
# [8] = biological target: Gal(b1-4)GlcNAc(b1-6)Gal(b1-4)GlcNAc
# Method in brief: as §1
# [9] = biological target: Gal(b1-4)GlcNAc(b1-6)GalNAc
# Method in brief: as §1
# [10] = biological target: Gal(b1-4)GlcNAc(b1-6)[Gal(b1-3)]GalNAc
# Method in brief: as §1
# [11] = biological target: Gal(b1-4)GlcNAc(b1-6)[Gal(b1-4)GlcNAc(b1-3)]GalNAc
# Method in brief: as §1
# Gal(b1-4)GlcNAc6P = biological target: Gal(b1-4)GlcNAc6P
# Method in brief: as §1
# Gal(b1-6)Gal = biological target: Gal(b1-6)Gal
# Method in brief: as §1
# Gal3S(b1-3)GalNAc = biological target: Gal3S(b1-3)GalNAc
# Method in brief: as §1
# Gal3S(b1-3)GlcNAc = biological target: Gal3S(b1-3)GlcNAc
# Method in brief: as §1
# [12] = biological target: Gal3S(b1-3)[Fuc(a1-4)]GlcNAc
# Method in brief: as §1
# Gal3S(b1-4)Glc = biological target: Gal3S(b1-4)Glc
# Method in brief: as §1
# Gal3S(b1-4)Glc6S = biological target: Gal3S(b1-4)Glc6S
# Method in brief: as §1
# Gal3S(b1-4)GlcNAc = biological target: Gal3S(b1-4)GlcNAc
# Method in brief: as §1
# [13] = biological target: Gal3S(b1-4)[Fuc(a1-3)]Glc6S
# Method in brief: as §1
# [14] = biological target: Gal3S(b1-4)[Fuc(a1-3)]GlcNAc
# Method in brief: as §1
# [15] = biological target: Gal3S(b1-4)[Fuc(a1-3)]GlcNAc6S
# Method in brief: as §1
# Gal3S4S(b1-4)GlcNAc = biological target: Gal3S4S(b1-4)GlcNAc
# Method in brief: as §1
# Gal3S6S(b1-4)GlcNAc = biological target: Gal3S6S(b1-4)GlcNAc
# Method in brief: as §1
# Gal3S6S(b1-4)GlcNAc6S = biological target: Gal3S6S(b1-4)GlcNAc6S
# Method in brief: as §1
# Gal4S(b1-4)GlcNAc = biological target: Gal4S(b1-4)GlcNAc
# Method in brief: as §1
# Gal4S6S(b1-4)GlcNAc = biological target: Gal4S6S(b1-4)GlcNAc
# Method in brief: as §1
# Gal6P(b1-4)GlcNAc = biological target: Gal6P(b1-4)GlcNAc
# Method in brief: as §1
# Gal6S(b1-3)GlcNAc = biological target: Gal6S(b1-3)GlcNAc
# Method in brief: as §1
# Gal6S(b1-3)GlcNAc6S = biological target: Gal6S(b1-3)GlcNAc6S
# Method in brief: as §1
# Gal6S(b1-4)Glc = biological target: Gal6S(b1-4)Glc
# Method in brief: as §1
# Gal6S(b1-4)Glc6S = biological target: Gal6S(b1-4)Glc6S
# Method in brief: as §1
# Gal6S(b1-4)GlcNAc = biological target: Gal6S(b1-4)GlcNAc
# Method in brief: as §1
# Gal6S(b1-4)GlcNAc6S = biological target: Gal6S(b1-4)GlcNAc6S
# Method in brief: as §1
# GalNAc(a1-3)Gal = biological target: GalNAc(a1-3)Gal
# Method in brief: as §1
# GalNAc(a1-3)GalNAc = biological target: GalNAc(a1-3)GalNAc
# Method in brief: as §1
# [16] = biological target: GalNAc(a1-3)GalNAc(b1-3)Gal(a1-4)Gal(b1-4)Glc
# Method in brief: as §1
# [17] = biological target: GalNAc(a1-3)GalNAc(b1-3)Gal(a1-4)Gal(b1-4)GlcNAc
# Method in brief: as §1
# GalNAc(b1-3)Gal = biological target: GalNAc(b1-3)Gal
# Method in brief: as §1
# [18] = biological target: GalNAc(b1-3)Gal(a1-4)Gal(b1-4)GlcNAc
# Method in brief: as §1
# [19] = biological target: GalNAc(b1-3)Gal(a1-4)Gal(b1-4)GlcNAc(b1-3)Gal(b1-4)Glc
# Method in brief: as §1
# [20] = biological target: GalNAc(b1-3)Gal(a1-6)Gal(b1-4)Glc
# Method in brief: as §1
# GalNAc(b1-3)GalNAc = biological target: GalNAc(b1-3)GalNAc
# Method in brief: as §1
# GalNAc(b1-3)GlcNAc = biological target: GalNAc(b1-3)GlcNAc
# Method in brief: as §1
# GalNAc(b1-4)Gal(b1-4)Glc = biological target: GalNAc(b1-4)Gal(b1-4)Glc
# Method in brief: as §1
binder,measurement,setting,value
B1,glycan array binding signal (z-score),[1],0.038
same,glycan array binding signal (z-score),[2],-0.095
same,glycan array binding signal (z-score),[3],-0.124
same,glycan array binding signal (z-score),[4],-0.068
same,glycan array binding signal (z-score),[5],-0.168
same,glycan array binding signal (z-score),[6],-0.108
same,glycan array binding signal (z-score),[7],-0.019
same,glycan array binding signal (z-score),[8],-0.162
same,glycan array binding signal (z-score),[9],-0.097
same,glycan array binding signal (z-score),[10],-0.107
same,glycan array binding signal (z-score),[11],-0.11
same,glycan array binding signal (z-score),Gal(b1-4)GlcNAc6P,-0.056
same,glycan array binding signal (z-score),Gal(b1-6)Gal,-0.152
same,glycan array binding signal (z-score),Gal3S(b1-3)GalNAc,0.052
same,glycan array binding signal (z-score),Gal3S(b1-3)GlcNAc,-0.111
same,glycan array binding signal (z-score),[12],-0.161
same,glycan array binding signal (z-score),Gal3S(b1-4)Glc,-0.223
same,glycan array binding signal (z-score),Gal3S(b1-4)Glc6S,-0.107
same,glycan array binding signal (z-score),Gal3S(b1-4)GlcNAc,0.048
same,glycan array binding signal (z-score),[13],-0.099
same,glycan array binding signal (z-score),[14],-0.064
same,glycan array binding signal (z-score),[15],-0.021
same,glycan array binding signal (z-score),Gal3S4S(b1-4)GlcNAc,-0.136
same,glycan array binding signal (z-score),Gal3S6S(b1-4)GlcNAc,0.105
same,glycan array binding signal (z-score),Gal3S6S(b1-4)GlcNAc6S,-0.089
same,glycan array binding signal (z-score),Gal4S(b1-4)GlcNAc,-0.184
same,glycan array binding signal (z-score),Gal4S6S(b1-4)GlcNAc,0.015
same,glycan array binding signal (z-score),Gal6P(b1-4)GlcNAc,-0.205
same,glycan array binding signal (z-score),Gal6S(b1-3)GlcNAc,-0.134
same,glycan array binding signal (z-score),Gal6S(b1-3)GlcNAc6S,-0.015
same,glycan array binding signal (z-score),Gal6S(b1-4)Glc,0.04
same,glycan array binding signal (z-score),Gal6S(b1-4)Glc6S,-0.137
same,glycan array binding signal (z-score),Gal6S(b1-4)GlcNAc,-0.118
same,glycan array binding signal (z-score),Gal6S(b1-4)GlcNAc6S,-0.162
same,glycan array binding signal (z-score),GalNAc(a1-3)Gal,-0.049
same,glycan array binding signal (z-score),GalNAc(a1-3)GalNAc,-0.185
same,glycan array binding signal (z-score),[16],-0.072
same,glycan array binding signal (z-score),[17],-0.099
same,glycan array binding signal (z-score),GalNAc(b1-3)Gal,-0.063
same,glycan array binding signal (z-score),[18],-0.177
same,glycan array binding signal (z-score),[19],-0.142
same,glycan array binding signal (z-score),[20],-0.074
same,glycan array binding signal (z-score),GalNAc(b1-3)GalNAc,-0.091
same,glycan array binding signal (z-score),GalNAc(b1-3)GlcNAc,-0.175
same,glycan array binding signal (z-score),GalNAc(b1-4)Gal(b1-4)Glc,-0.071
